Hit rate of the full screen: of about 270,000 compounds, about 620 (0.23%) were called active. Inconclusive means that the source gave no clear call. Such entries were picked first, then a sample of the others. Calls come from the whole dose curve; as a rule, active = well fitted inhibition curve with a large enough effect in the polarisation, with a control signal flat (not every such curve was filed as active); inconclusive = small, poorly fitted or top-dose-only effect, or effect the other way, or a change in a side signal; inactive = no such curve, though single readings can be large or run the other way; the % refers to the polarisation. Where the call is inconclusive, the potency comes from a doubtful curve fit. A note “side channel” means that the fit belongs to a control or component signal, not to the main read-out.
Target: Menin (Homo sapiens) (UniProt O00255)
Assay: qHTS Assay for Inhibitors Targeting the Menin-MLL Interaction in MLL Related Leukemias: Competition With Texas Red Labeled MLL-derived Mutant Peptide
Details: fluorescence polarization; series mostly up to 61.6 µM
Potency is the fitted concentration of half-maximal effect; tags give direction and shape of the fitted curve or compound fluorescence and quenching.

Chain of UniProt O00255 (O00255 whole entry, looked up): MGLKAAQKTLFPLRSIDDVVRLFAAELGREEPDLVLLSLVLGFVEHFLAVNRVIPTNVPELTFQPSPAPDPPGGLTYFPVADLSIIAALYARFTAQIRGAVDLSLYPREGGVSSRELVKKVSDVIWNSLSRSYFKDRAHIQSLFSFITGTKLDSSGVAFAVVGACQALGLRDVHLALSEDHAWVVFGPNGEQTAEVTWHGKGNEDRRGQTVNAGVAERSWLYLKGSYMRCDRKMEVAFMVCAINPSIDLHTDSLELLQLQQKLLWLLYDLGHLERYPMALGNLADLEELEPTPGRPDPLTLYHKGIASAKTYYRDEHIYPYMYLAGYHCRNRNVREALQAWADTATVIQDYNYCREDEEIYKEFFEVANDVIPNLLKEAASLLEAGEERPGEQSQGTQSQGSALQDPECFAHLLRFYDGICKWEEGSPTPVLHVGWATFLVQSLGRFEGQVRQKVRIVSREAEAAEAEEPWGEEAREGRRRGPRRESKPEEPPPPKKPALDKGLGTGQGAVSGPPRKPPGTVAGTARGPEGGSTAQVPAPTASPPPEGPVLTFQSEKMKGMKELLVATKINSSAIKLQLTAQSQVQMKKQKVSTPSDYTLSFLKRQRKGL

Compound	Potency
Cc1ccccc1NC(=O)COC(=O)c1ccc(CSc2ccc(Cl)cc2)cc1	inconclusive: 15.8 µM [fluorescent, side channel, partial curve]
O=C(Oc1ccc2ccc(O)cc2c1)c1ccccc1Cl	inconclusive: 39.8 µM [quencher, side channel, single point]
COc1ccc(/C=C/c2ccc3cccc(O)c3n2)c(OC)c1OC	inconclusive: 22.4 µM [quencher, side channel, partial curve]
CCn1cc(C(=O)N2CCN(c3ccccn3)CC2)c2cc(OC)c(OC)cc2c1=O	inconclusive: 39.8 µM [inhibitor, single point]
Fc1ccc(CNC(=S)Nc2ccc(Cl)cc2)cc1	inconclusive: 17.8 µM [quencher, side channel, partial curve]
CC(=O)N1CCc2c(sc(NC(=O)Cc3ccc(F)cc3)c2C#N)C1	inconclusive: 39.8 µM [fluorescent, single point]
CCN(CC)c1ccc2c(O)cc(=O)oc2c1	inconclusive: 20 µM [quencher, side channel, partial curve]
COc1ccc(NC(=S)NCCc2ccccc2)c(C)c1	inactive
COc1cc2c(cc1OC)C1(Nc3c-2c(-c2ccccc2)nn3-c2ccccc2)C(=O)Nc2ccccc21 (stereo not drawn)	inconclusive: 31.6 µM [quencher, side channel, single point]
Cc1ccccc1N1C(=O)c2cc(S(N)(=O)=O)c(Cl)cc2N[C@H]1C	inconclusive: 22.4 µM [inhibitor, partial curve, poor fit]
CSc1nc(C)cc(NC(N)=O)n1	inconclusive: 8.91 µM [inhibitor, partial curve]
Cc1cc(C)c2[nH]c(=O)c(C(c3nnnn3Cc3ccc4c(c3)OCO4)N3CCC(C)CC3)cc2c1 (stereo not drawn)	inconclusive: 8.91 µM [inhibitor, single point]
C=CCOC(=O)C1=C(C)NC(SCC(=O)Nc2nccs2)=C(C#N)C1c1cccs1 (stereo not drawn)	inconclusive: 17.8 µM [quencher, side channel, partial curve]
O=C(NCCC1=CCCCC1)C(=O)c1c[nH]c2ccccc12	inconclusive: 2.82 µM [quencher, side channel, single point]
Cn1c(=O)c(-c2ccc(Cl)cc2)nc2cnc(OCc3ccccc3)nc21	inactive
Cc1nc2cc(C(F)(F)F)ccc2n1CCNc1nc(-c2ccc(F)cc2)cs1	inconclusive: 1.58 µM [quencher, side channel, full curve]
c1nc2n(n1)C1=C(CCCC1)C1(CCCCC1)N2	inactive
C(=N\Nc1nc(N2CCCCC2)nc(N2CCCCC2)n1)/c1c[nH]c2ccccc12	inconclusive: 2.82 µM [quencher, side channel, full curve]
O=C(Cc1cccs1)NNC(=S)NC(=O)c1ccc(F)c(F)c1	inconclusive: 35.5 µM [quencher, side channel, single point]
CCOCN(C(=O)Cn1cnc2ccccc21)c1c(C)cccc1CC	inconclusive: 10 µM [fluorescent, side channel, partial curve]

Compound	Potency
CC(=O)Nc1ccc(N(C(=O)Cc2c[nH]c3ccccc23)C(C(=O)NC2CCCCC2)c2ccco2)cc1 (stereo not drawn)	inactive
CCOC(=O)c1nc(Nc2ccc(N3CCC(C)CC3)cc2)c2ccccc2n1	inconclusive: 31.6 µM [quencher, side channel, single point]
CCN(CC)c1ccc(/C=N/NC(=S)NCc2ccc(OC)cc2)cc1	inconclusive: 39.8 µM [quencher, side channel, single point]
COc1cc(C(=O)NCc2nnc(SCC(=O)N3CCc4ccccc43)o2)cc(OC)c1OC	inconclusive: 11.2 µM [inhibitor, partial curve, poor fit]
COc1ccc(-c2nnc(N(C)C(=O)c3ccco3)s2)cc1OC	inconclusive: 6.31 µM [inhibitor, full curve]
N#Cc1ccc(C23CC4CC(CC(C4)C2)C3)[nH]c1=O	inactive
Cc1nc(NC(=O)c2ccccc2)sc1-c1csc(Nc2ccc(Cl)cc2Cl)n1	inconclusive: 2.51 µM [quencher, side channel, full curve]
O=[N+]([O-])c1ccc2[nH]c3c(c2c1)CCCC3	inconclusive: 20 µM [quencher, partial curve]
COc1ccc(CCNC(=O)c2cc(=O)c3cc(C)ccc3o2)cc1OC	inconclusive: 31.6 µM [fluorescent, side channel, single point]
CCOC(=O)N1CCN(c2nc(-c3ccccc3)c3ccccc3n2)CC1	inconclusive: 14.1 µM [fluorescent, side channel, partial curve]
COc1ccccc1NC(=O)c1c(Nc2ccccc2C)sc(C(=O)Nc2cccc(Cl)c2)c1N	inconclusive: 3.98 µM [quencher, side channel, partial curve]
O=C(CCSc1nnc2ccc3ccccc3n12)Nc1ccc(F)cc1	inconclusive: 39.8 µM [fluorescent, side channel, single point]
CCOc1ccc(N2C(=O)C(CC(=O)Nc3ccc(F)cc3)N(Cc3ccccn3)C2=S)cc1 (stereo not drawn)	inconclusive: 12.6 µM [quencher, side channel, partial curve]
Cc1ccc(NC(=O)c2ccc(S(=O)(=O)N3CCCCC3)cc2)cc1	inactive
O=C1C(=O)c2ccccc2C(O)=C1c1ccccc1F	inconclusive: 25.1 µM [quencher, side channel, single point]
CN(C)S(=O)(=O)c1ccc(NC(=O)CCNC(=O)c2ccc([N+](=O)[O-])cc2)cc1	inconclusive: 14.1 µM [quencher, side channel, partial curve]
Cc1ccc(N=Nc2ccc(O)cc2)c(Br)c1	inconclusive: 17.8 µM [quencher, side channel, partial curve]
CC1CCCN(C(=O)COc2ccc(-c3ccccc3)cc2)C1 (stereo not drawn)	inconclusive: 8.91 µM [fluorescent, side channel, full curve, poor fit]
Cc1ccc(SCCN2CCC(C(C)(C)C)CCC2=O)cc1 (stereo not drawn)	inconclusive: 20 µM [fluorescent, side channel, partial curve]
Cc1ccc(-c2csc(NC(=O)CCNC(=O)c3ccc(Cl)cc3)n2)cc1	inconclusive: 31.6 µM [fluorescent, side channel, single point]

Compound	Potency
CCCCOc1ccc(CONS(=O)(=O)c2ccc(NC(C)=O)cc2)cc1Cl	inconclusive: 3.16 µM [quencher, side channel, single point]
CCOC(=O)CCc1c(C)c2ccc3c(c2oc1=O)CN(CCCO)CO3	inconclusive: 0.316 µM [inhibitor, full curve, poor fit]
Cc1ccc(/C=C/C(=O)Nc2ccc(Oc3ccccc3)cc2)o1	inconclusive: 28.2 µM [quencher, side channel, single point]
COc1ccc(C(=O)Nc2ccc(N3CCOCC3)cc2)cc1S(=O)(=O)NC1CCCC1	inactive
CCc1ccc(NC(=O)N(CCN2CCOCC2)Cc2ccc3c(c2)CCCN3CC)cc1	inconclusive: 8.91 µM [fluorescent, side channel, partial curve, poor fit]
O=C(Nc1nnc(Cc2ccccc2)s1)Nc1ccccc1F	inconclusive: 25.1 µM [inhibitor, single point]
Cc1ccc(C)c(OCc2cc(C(=O)N3CCNC(=O)C3)no2)c1	inconclusive: 2.82 µM [quencher, side channel, full curve, poor fit]
CC(C)(C)c1ccc(C(=O)N2CCN(Cc3ccccc3)CC2)cc1	inconclusive: 2.51 µM [inhibitor, full curve, poor fit]
CN1C(=S)SC(C)(C)C1N(O)C(=O)Nc1ccc(Cl)cc1 (stereo not drawn)	inconclusive: 3.98 µM [quencher, side channel, full curve]
C(=N\NC1=Nc2cccc3cccc1c23)/c1ccccc1	inconclusive: 28.2 µM [quencher, side channel, partial curve]
O=C(CCC(=O)N1CCN(c2ccccn2)CC1)Nc1nnc(C2CCCCC2)s1	inconclusive: 35.5 µM [inhibitor, single point]
Cc1ccc(-c2csc(NC(=O)c3ccc([N+](=O)[O-])o3)n2)cc1	inconclusive: 22.4 µM [quencher, side channel, partial curve]
[S-]c1nnc(-c2ccc(Br)cc2)n1-c1ccccc1.[Zn+2]	inconclusive: 11.2 µM [inhibitor, partial curve]
Cn1c(CCCCCN)nc2ccccc21	inactive
C=CCNC(=O)c1ccccc1NC(=O)c1ccc(Cl)c(S(=O)(=O)Nc2cccc(C)c2C)c1	inconclusive: 35.5 µM [inhibitor, single point]
CC1=CC(=O)C=C(C)C1=NOc1ccccc1[N+](=O)[O-]	inconclusive: 39.8 µM [quencher, side channel, single point]
CC(=O)c1ccc(NC(=S)NCc2ccc(Cl)cc2Cl)cc1	inconclusive: 20 µM [quencher, side channel, partial curve]
CCOc1cc(/C=C2\SC(=S)N(NS(=O)(=O)c3ccccc3)C2=O)ccc1O	inconclusive: 28.2 µM [fluorescent, side channel, partial curve]

Source: PubChem BioAssay AID1768 (National Center for Advancing Translational Sciences (NCATS), 2009)
